# Out of some 270,000 compounds screened, about 5,800 (2.1%) were called active. The shares of active, inactive and inconclusive entries below differ from those in the screen. Calls follow the shape of the dose curve; as a rule, active = well fitted inhibition curve with a large enough effect; inconclusive = small, poorly fitted or top-dose-only effect; inactive = flat fitted curve, though single readings scatter. Potencies of inconclusive entries are doubtful fits and often do not repeat.
# Biological target: Microtubule-associated protein tau (Homo sapiens) (UniProt P10636)
# Sequence of UniProt P10636 (P10636 whole entry, looked up): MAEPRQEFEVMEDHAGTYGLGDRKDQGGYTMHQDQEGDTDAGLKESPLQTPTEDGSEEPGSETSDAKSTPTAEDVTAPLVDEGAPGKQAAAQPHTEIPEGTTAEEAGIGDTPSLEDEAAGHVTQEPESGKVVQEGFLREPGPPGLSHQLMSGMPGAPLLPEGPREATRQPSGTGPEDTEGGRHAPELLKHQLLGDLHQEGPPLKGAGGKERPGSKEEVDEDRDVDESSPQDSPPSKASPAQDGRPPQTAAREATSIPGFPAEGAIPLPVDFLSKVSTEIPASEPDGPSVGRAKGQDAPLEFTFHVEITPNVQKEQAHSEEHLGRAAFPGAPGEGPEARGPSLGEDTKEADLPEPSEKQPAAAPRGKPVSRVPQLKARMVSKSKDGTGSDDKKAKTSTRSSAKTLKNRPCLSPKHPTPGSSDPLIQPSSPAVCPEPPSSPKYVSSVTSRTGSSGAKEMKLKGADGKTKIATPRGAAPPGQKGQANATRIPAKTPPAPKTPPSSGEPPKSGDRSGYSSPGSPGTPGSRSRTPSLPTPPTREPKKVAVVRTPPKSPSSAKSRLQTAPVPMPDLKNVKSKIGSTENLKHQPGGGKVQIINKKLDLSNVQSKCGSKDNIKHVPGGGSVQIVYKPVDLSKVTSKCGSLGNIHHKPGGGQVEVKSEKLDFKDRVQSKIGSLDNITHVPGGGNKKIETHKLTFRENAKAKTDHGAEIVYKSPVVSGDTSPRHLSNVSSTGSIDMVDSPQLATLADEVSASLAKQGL
# Assay: qHTS for Inhibitors of Tau Fibril Formation, Thioflavin T Binding; also: nearly all actives have a fitted effect of over 55% in size
# Details: recombinant tau K18 P301L (four-repeat tau fragment), heparin-induced fibrillization, ThT fluorescence; series mostly up to 57.4 µM
# How it was run: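 Aggregation was driven by heparin (20 uM final) acting on recombinant tau […] bearing P301L in 100 mM sodium acetate pH 7; fibrils were detected with Thioflavin T.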
# Potency is read from the fitted curve at half-maximal effect; tags tell the direction and shape of the fitted curve.
row,SMILES,Potency
1,COc1ccc(N2C(=O)CC(Sc3ncn[nH]3)C2=O)c(OC)c1 (stereo unspecified),"inconclusive: 28.2 µM [inhibitor, single point]"
2,CCCN1C(=O)/C(=C/c2nc3ccccc3c(=O)[nH]2)c2cc(C)ccc21,active: 14.1 µM
3,CCOC(=O)c1cnc(N2CCN(C(=O)OCC)CC2)[nH]c1=O,"inconclusive: 1.78 µM [inhibitor, full curve]"
4,CCc1cccc(C)c1Nc1c(-c2cccc(O)c2)nc2nc(C)cc(C)n12,"inconclusive: 31.6 µM [inhibitor, single point]"
5,CCCCC/C=C\C/C=C\C/C=C\C/C=C\CCCC(=O)O[C@@H](CO)COC(=O)CCCCCCCCCCCCCCCCC,inactive
6,CCOC(=O)c1cc(-c2ccc(OC)cc2)n(CCC(=O)Nc2nc3ccc(OCC)cc3s2)c1C,inactive
7,O=[N+]([O-])c1ccc(N2CCN(C(=S)NC3CCCCC3)CC2)cc1,active: 10 µM
8,COC(=O)c1cnn(-c2ccc(C(=O)Nc3cc(OC)c(OC)c(OC)c3)cc2)c1N,"inconclusive: 17.8 µM [inhibitor, partial curve]"
9,CC1=C(C(=O)Nc2ccc(Cl)cc2)C(c2ccc(C(F)(F)F)cc2)n2nnnc2N1 (stereo unspecified),inactive
10,COc1ccc(OC)c(NC(=O)Cc2c(C(=O)O)n(C)c3ccc(C)cc23)c1,"inconclusive: 25.1 µM [inhibitor, single point]"
11,CC(C)c1ccc(C(=O)NC(=S)Nc2ccc3[nH]c(=O)[nH]c3c2)cc1,"inconclusive: 2 µM [inhibitor, full curve]"
12,CCc1cc2ccccc2nc1SCC(=O)Nc1cc(OC)c(OC)cc1C(=O)O,inactive
13,Cc1cc(F)ccc1NC(=O)Cn1c(=O)ccc2cc(S(=O)(=O)N3CCC(C)CC3)ccc21,inactive
14,COC(=O)/C(=C\C(=O)c1ccc([N+](=O)[O-])cc1)Nc1ccc(OC)cc1,active: 3.16 µM
15,C=CCNC(=O)/C(C#N)=C\c1cc(Cl)c(OCC)c(OC)c1,"inconclusive: 25.1 µM [inhibitor, single point]"
16,Cc1ccc(-c2cc(C(F)F)n3ncc(C(=O)N4CCN(c5ccccn5)CC4)c3n2)cc1,"inconclusive: 17.8 µM [inhibitor, partial curve]"
17,Cc1nn(C)cc1C(=O)NNC(=S)Nc1ccc(Cl)cc1,"inconclusive: 28.2 µM [inhibitor, partial curve]"
18,C=CCn1c(SCc2nc3sc(C(=O)O)c(C)c3c(=O)[nH]2)nnc1-c1ccc(C(C)(C)C)cc1,"inconclusive: 31.6 µM [inhibitor, single point]"
19,CCN(CC)c1ccc(/C=N/NC(=O)Nc2nonc2N)cc1,"inconclusive: 3.98 µM [inhibitor, single point]"
20,COC(=O)C1=NOC2(C=C(Br)C(OC)=C(Br)C2=O)C1 (stereo unspecified),active: 3.98 µM
21,O=C(CSc1ccc2nc(-c3ccccc3)cn2n1)Nc1cccc(F)c1,inactive
22,O=C(NCCN1CCNCC1)c1ccccn1,inactive
23,Cc1cccc(NC(=O)CSc2nc3ccc(NC(=O)COc4ccccc4F)cc3s2)c1,"inconclusive: 1 µM [inhibitor, full curve, poor fit]"
24,CC1CCC(=C(C#N)c2nc(-c3cc4ccccc4oc3=O)cs2)CC1 (stereo unspecified),"inconclusive: 5.01 µM [inhibitor, partial curve]"

row,SMILES,Potency
1,CCOC(=O)c1c(C)[nH]c(C(=O)C(C)Sc2ccc(Cl)cc2)c1C (stereo unspecified),"inconclusive: 11.2 µM [inhibitor, partial curve]"
2,N#C/C(=C\C1CC2C=CC1C2)c1nc2ccccc2[nH]1 (stereo unspecified),"inconclusive: 31.6 µM [inhibitor, partial curve]"
3,Cc1ccccc1NC(=S)N=Nc1c(O)n(C)c2ccc(S(=O)(=O)N3CCOCC3)cc12,inactive
4,Oc1ccc(Nc2nnc(-c3ccc(O)cc3)c3ccccc23)cc1,inactive
5,CC(=O)N1CCc2cc(C(=O)CN3CCN(c4cccc(Cl)c4)CC3)ccc21,"inconclusive: 28.2 µM [inhibitor, partial curve]"
6,O=C(CCSc1ccccn1)c1ccccc1,"inconclusive: 8.91 µM [inhibitor, partial curve]"
7,COc1ccc(CC(=O)N/N=C/c2ccc(-c3cccc(C(=O)O)c3)o2)cc1OC,"inconclusive: 25.1 µM [inhibitor, partial curve]"
8,CCCCN(C(=O)CNC(=O)c1cccs1)C(C(=O)NC1CCCC1)c1ccncc1 (stereo unspecified),"inconclusive: 3.16 µM [inhibitor, full curve]"
9,O=C(CSc1ccsc1[N+](=O)[O-])N1CCN(c2ccccc2)CC1,"inconclusive: 17.8 µM [inhibitor, partial curve, poor fit]"
10,COc1ccc(/C=N/NC(=O)COc2cccc3ccccc23)c(C(=O)O)c1OC,inactive
11,CCOc1ccc(OCC)c(NC(=O)Nc2ccc3c(c2)N(C)C(=O)CS3)c1,inactive
12,CN(CCO)c1cc(N2CCN(C(=O)c3ccco3)CC2)c2nonc2c1[N+](=O)[O-],"inconclusive: 25.1 µM [inhibitor, single point]"
13,COc1ccc2[nH]c3nc(SCC(=O)NNC(=O)c4ccc(OC)c(OC)c4)nnc3c2c1,"inconclusive: 3.55 µM [inhibitor, full curve]"
14,CCCc1ccc(/C=C2\C(=O)c3ccccc3C(O)=C2C(=O)OCC)cc1,active: 31.6 µM
15,C=CCNC(=S)NN=C1CCCCCCC1,inactive
16,Cc1nn(C)c2c1c(C(F)(F)F)cc(=O)n2C(C)C(=O)NCc1ccccc1Cl (stereo unspecified),inactive
17,Cc1ccccc1NC(=O)Cc1nc(CCl)cs1,"inconclusive: 39.8 µM [inhibitor, single point]"
18,O=C(COc1ccc(Cl)cc1)c1ccc(O)cc1O,"inconclusive: 1.58 µM [inhibitor, full curve, poor fit]"
19,COc1ccc(C(=O)Nc2ccc(N3CCOCC3)cc2)cc1OC,"inconclusive: 25.1 µM [inhibitor, partial curve]"
20,CCOc1cc(CNn2cn[nH]c2=S)cc(Cl)c1OCc1ccccc1F,"inconclusive: 1 µM [inhibitor, partial curve]"
21,O=C(CSc1ncccc1-c1nc2ccccc2[nH]1)NCc1ccco1,"inconclusive: 14.1 µM [inhibitor, partial curve]"
22,O=C(CC(=O)c1ccccc1O)c1ccc(F)cc1,"inconclusive: 20 µM [inhibitor, partial curve, poor fit]"
23,CCN(C(=O)c1cn(CC)c(=O)c2cc(OC)c(OC)cc12)c1ccc(C)c(C)c1,inactive
24,Cc1cccc(NC(=O)CCc2c(C)nc3c(c(C)nn3C(C)(C)C)c2C)c1C,"inconclusive: 20 µM [inhibitor, partial curve]"

row,SMILES,Potency
1,CN1C(=O)CSc2ccc(NC(=O)N3CCC(N4CCCCC4)CC3)cc21,"inconclusive: 39.8 µM [inhibitor, single point]"
2,O=C(Nc1ccc(Cl)cc1C(=O)Nc1ccccn1)c1ccco1,inactive
3,CCOC(=O)c1cc(-c2ccncc2)nc2c1c(C)nn2-c1ccccn1,"inconclusive: 28.2 µM [inhibitor, single point]"
4,O=C1/C(=C\Nc2ccc(OC(F)(F)F)cc2)CCN1c1ncccn1,"inconclusive: 3.98 µM [inhibitor, partial curve]"
5,CCCCS(=O)(=O)c1nc(-c2ccc(Br)cc2)cc(-c2ccccc2)c1C#N,inactive
6,Cc1ccc(Oc2c(C(N)=O)cc([N+](=O)[O-])cc2[N+](=O)[O-])cc1,active: 8.91 µM
7,COc1ccc(NC(=O)CSc2nc(-c3ccco3)cc(C(F)(F)F)n2)cc1Cl,inactive
8,CC(C)(C)c1ccc(OC(=O)c2ccc(-n3cncn3)nc2)cc1,"inconclusive: 5.01 µM [inhibitor, partial curve]"
9,CCc1ccc2oc(-c3cc(NC(=O)c4cc([N+](=O)[O-])ccc4N4CCOCC4)ccc3Cl)nc2c1,"inconclusive: 10 µM [inhibitor, single point]"
10,Cc1cc(C)cc(-n2c(SCC(=O)NCc3ccc4c(c3)OCO4)nc3ccccc3c2=O)c1,inactive
11,COCCCNC(=O)CN(c1ccc(OC)cc1)S(=O)(=O)c1ccc(NC(C)=O)cc1,inactive
12,O=C(NC1CCCC1)C(c1ccncc1)N(Cc1ccco1)C(=O)c1ccc(-c2ccccc2)[nH]1 (stereo unspecified),"inconclusive: 17.8 µM [inhibitor, partial curve]"
13,COc1ccc(N=Nc2ccc(O)c3ncccc23)cc1,active: 1.41 µM
14,N#CC(c1ccc(Cl)nn1)c1ccc(Cl)cc1Cl (stereo unspecified),inactive
15,C=CC[n+]1ccc(/C=C2\C=Cc3cc(C)ccc3N2CC)c2ccccc21,active: 3.16 µM
16,Cc1c(N2C(=O)/C(=C/C3CC=CCC3)SC2=S)c(=O)n(-c2ccccc2)n1C (stereo unspecified),"inconclusive: 15.8 µM [inhibitor, partial curve]"
17,O=C(O)c1cc(NN=Nc2ccc(Br)cc2)cc([N+](=O)[O-])c1,active: 14.1 µM
18,C=CCSc1nnc2c(n1)OC=Nc1ccc(Br)cc1-2,"inconclusive: 12.6 µM [inhibitor, single point]"
19,COc1ccc(-c2nc3c(c(SCC(=O)N4CCCCC4)n2)Cc2c(CO)cnc(C)c2O3)cc1,"inconclusive: 0.501 µM [inhibitor, full curve, poor fit]"
20,CC(=O)N1CCC2(CC1)C/C(=N\NC(=S)Nc1ccccc1F)c1cc(O)ccc1O2,"inconclusive: 31.6 µM [inhibitor, partial curve]"
21,O=C1C(=O)c2ccc(-c3ccccc3)cc2-c2ccccc21,active: 1.26 µM
22,O=C(Nc1cccc(F)c1F)C1CCN(c2ncccn2)CC1,inactive
23,Nc1nc(N)c2ncc(C(=O)CCc3ccccc3)nc2n1,"inconclusive: 3.55 µM [inhibitor, single point]"
